Reference: the supplement of paper PMC4166925
± gives the standard deviation of the averaged measurements. In all, about 33,000 sequences were measured (“E-score (dimensionless, -0.5 to 0.5)”: median about -0.046, highest 2% from about 0.36 on). The list shows a part of the results.

These sequences were tested on T1, SpTbr T-box DNA-binding domain (GST fusion) (assay: PBM E-score of 8-mer (E-score (dimensionless, -0.5 to 0.5)); Tbr is Tbrain of the sea star Patiria miniata (Pm) or the sea urchin Strongylocentrotus purpuratus (Sp); higher = stronger binding preference; most listed sequences are background and not binding sites). Details: the construct has about 5 more residues each side.
T1 sequence: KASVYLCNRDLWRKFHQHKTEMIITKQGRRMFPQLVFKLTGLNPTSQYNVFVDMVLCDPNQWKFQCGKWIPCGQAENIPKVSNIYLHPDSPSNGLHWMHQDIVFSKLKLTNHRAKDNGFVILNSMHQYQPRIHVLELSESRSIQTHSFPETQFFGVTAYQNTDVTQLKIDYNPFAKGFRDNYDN
Outline: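 Universal Agilent oligonucleotide arrays, made double-stranded by primer extension, were incubated with 200 nM GST-fused Tbr T-box DNA-binding domain in PBS (pH 7.5). The protein was expressed in BL21 E. coli at 20 °C and purified by glutathione affinity chromatography. After scanning and quantification, the Universal PBM Analysis Suite assigned an enrichment E-score to each ungapped 8-mer, averaged over duplicate arrays.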

Row | Sequence | PBM E-score of 8-mer
1 | CATTGTTA | 0.079 ± 0.066
2 | CCTTCGCG | 0.282 ± 0.036
3 | CGCATGGA | -0.171 ± 0.03
4 | CATTATGG | 0.0383 ± 0.046
5 | ATCTTGTC | 0.00987 ± 0.039
6 | CATTCCAG | -0.221 ± 0.019
7 | GGAACCCA | -0.181 ± 0.0065
8 | AGTGTGGC | 0.33 ± 0.014
9 | ATGTGGCC | -0.12 ± 0.073
10 | CAAAACCG | 0.0517 ± 0.016
11 | GATCGAGA | 0.00394 ± 0.097
12 | AGACAGAG | -0.2 ± 0.0093
13 | ATGCAGCC | -0.131 ± 0.033
14 | CGGAATGA | -0.133 ± 0.016
15 | AAGCGAGG | 0.115 ± 0.03
16 | CGACACAC | 0.217 ± 0.038
17 | ATACGGTC | -0.0883 ± 0.059
18 | ATTGCGCA | -0.0884 ± 0.043
19 | ATTGGTTC | -0.115 ± 0.07
20 | GGACTCGA | -0.26 ± 0.13
21 | TACCACGA | -0.00786 ± 0.00088
22 | CGAAGCTC | -0.151 ± 0.05

Row | Sequence | PBM E-score of 8-mer
23 | GGCTTCTA | -0.319 ± 0.012
24 | ACACCACC | 0.365 ± 0.0069
25 | GCCATTCC | 0.0498 ± 0.0052
26 | ATTCTGTG | -0.0566 ± 0.036
27 | GACCGCTA | -0.224 ± 0.056
28 | TAACATAA | 0.0343 ± 0.02
29 | CCTTCATC | -0.0778 ± 0.034
30 | GGTATAAA | -0.187 ± 0.033
31 | GAATGCTA | 0.117 ± 0.012
32 | CGGCAACC | -0.0907 ± 0.046
33 | AGGGAAAT | -0.171 ± 0.022
34 | ACTACTTC | -0.0578 ± 0.031
35 | CAGTCTAC | -0.177 ± 0.035
36 | GATATATA | 0.0251 ± 0.046
37 | CGCTATGC | -0.0429 ± 0.048
38 | TGCTCTAA | -0.3265 ± 0.0019
39 | AGGCGCAG | 0.0482 ± 0.081
40 | GTGCCACA | 0.255 ± 0.0037
41 | ATGTTGCA | -0.00245 ± 0.0042
42 | AAAGGTCA | -0.271 ± 0.0056
43 | GGGACGAC | -0.195 ± 0.0086
44 | AGCGACGA | 0.167 ± 0.064

Row | Sequence | PBM E-score of 8-mer
45 | TACCATAA | -0.0714 ± 0.024
46 | TACAATAA | -0.244 ± 0.09
47 | AGAGACCG | -0.117 ± 0.063
48 | GCCCAATA | -0.142 ± 0.1
49 | ATTGTCAC | 0.399 ± 0.013
50 | CCTAACCA | -0.0548 ± 0.051
51 | GGGTAGCA | 0.079 ± 0.046
52 | TCACCAGA | 0.122 ± 0.012
53 | CCCCGCTA | 0.0351 ± 0.065
54 | GGTCGTTA | 0.0944 ± 0.048
55 | CATCCGAA | -0.263 ± 0.013
56 | CGGCCGTC | -0.00995 ± 0.014
57 | CACTGCCC | 0.0524 ± 0.059
58 | AGGCGGCG | -0.0129 ± 0.034
59 | AAAGCGGA | -0.176 ± 0.057
60 | CTTGGAGC | -0.17 ± 0.054
61 | GCACCTCC | 0.396 ± 0.013
62 | CATGGAGC | -0.275 ± 0.048
63 | GCCGTATA | -0.237 ± 0.045
64 | CGTTAAAA | 0.0585 ± 0.1
65 | ACTATCCC | -0.145 ± 0.014
66 | CGGGTAAG | -0.026 ± 0.015

Row | Sequence | PBM E-score of 8-mer
67 | ACCCCCGG | -0.155 ± 0.0082
68 | GGAACACA | 0.0712 ± 0.075
69 | AAGAGCGC | -0.0972 ± 0.037
70 | ACAGTAGC | 0.14 ± 0.0063
71 | GATTGCAA | -0.0515 ± 0.087
72 | AGATGCGC | -0.042 ± 0.0083
73 | ACTATAAC | 0.0539 ± 0.046
74 | CGAACTAC | 0.0447 ± 0.036
75 | CTGAGAGC | -0.134 ± 0.025
76 | AGAGGTCC | -0.0898 ± 0.045
77 | GCCGACGA | 0.0285 ± 0.017
78 | ACGTAGAC | 0.03 ± 0.015
79 | CGATTCGC | 0.261 ± 0.029
80 | CCAAGAAG | -0.183 ± 0.082
81 | CCGCATAA | -0.25 ± 0.0057
82 | AAATCTTA | -0.0137 ± 0.04
83 | CTTTCGTC | -0.0317 ± 0.022
84 | ACTATTCG | 0.0973 ± 0.022
85 | CTGACATA | -0.0395 ± 0.064
86 | CGGCACTA | -0.0878 ± 0.018
